Data reported in the supplement of paper PMC7726561.
In all, about 1,400 sequences were measured (“thermal melting temperature (Tm) of peptide-HLA complex”: median about 60, lowest 2% from about 45 on). This is one part of the list.

Target: HLA-B*07:02
Experiment: thermal melting temperature (Tm) of peptide-HLA complex; higher = more thermostable pHLA complex
Settings: C1R-B*07:02
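Further: cell lysates heated 10 min at 37–73 °C, remaining pHLA pulled down with pan-class I antibody, peptides quantified by DIA-MS versus 37 °C, Tm where half the complex is lost.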

Sequence | thermal melting temperature [°C]
APLPAQAVF | 63.2
VPRGSTLPLL | 62.7
FPQVGRTAL | 62.1
IPAKVVREVL | 52.6
IPKSAIRVI | 60.1
YPTISLHAL | 59.8
SPGWVRLAL | 63
LPKNNPPTI | 55.5
HPREPALGP | 55.3
LPDGRIIKV | 58.9
RPVHPALPF | 61.9
EPRFVLRAL | 59.4
LPHVPLGVI | 62.2
TPFGGRLLVL | 62.5
IPDASKLQFIL | 62.2
APLGGRQGF | 60.2
QPMPLKASL | 60.7
APYRDLPASL | 63.5

Sequence | thermal melting temperature [°C]
TPADIRSFL | 61.8
VPADLRISI | 62.9
APKNVTSMI | 61.2
HPSDRPLML | 56.1
FPRFGGSL | 62.8
LPDFERESL | 61.7
LPALPTQAL | 64.4
HPREPLPPIQ | 51.3
FPRFGGSLAL | 57.6
HPAAFPLPV | 57.7
KPRDVSSVELL | 60.7
QPRGPLGLTDL | 50.4
GPRPGSPSALL | 61.4
APASPFRQL | 59.8
RPNGVITGL | 60.1
HAAAYRNAL | 58.9
IPRGPASQF | 56.9
APRSVAVSSI | 59.4
